Test results: PubChem BioAssay AID1347073 (National Center for Advancing Translational Sciences (NCATS), 2019)
The campaign covered roughly 45,000 compounds. About 200 (0.44%) were called active. Roughly 7% stayed inconclusive and do not appear here. Calls come from the whole dose curve; as a rule, active = well fitted activation curve with a large enough effect; inconclusive = small, poorly fitted or top-dose-only effect; inactive = no such curve, though single readings can be large or run the other way. Some of the results follow.

Experiment: qHTS of TDP-43 Inhibitors: NCGC Sytravon Library Screen; note: 0% is about no effect; nearly all actives have a fitted effect of over 55% in size
Settings: yeast TDP-43 toxicity rescue, BacTiter-Glo growth, 24 h; series mostly up to 46.1 µM; growth rescue (activation): at the top concentration
Procedure, shortened: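 TDP-43-expressing yeast, pregrown in raffinose, seeded at OD600 0.02 in galactose medium with compound for 24 hr at 30 deg C. Growth read by BacTiter-Glo luminescence, so rescue of toxicity appears as activation.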

SMILES | growth rescue (activation)
COc1ccc(-n2nc(C(=O)NCC(=O)N3CCCCC3)c3ccccc3c2=O)c(OC)c1 | inactive: -1.43%
COc1ccc(NS(=O)(=O)c2cc(C(=O)N3CCN(C(C)=O)CC3)ccc2Cl)cc1 | inactive: -11.5%
Cc1ccccc1C(=O)Nc1ccnn1C1CCN(Cc2cnn(C)c2)CC1 | inactive: -0.116%
COc1ccc(/C=N/Nc2cc(N(C)C)nc(N(C)C)n2)cc1 | inactive: -0.143%
O=C(CNS(=O)(=O)c1cccs1)NCc1ccccc1 | inactive: -17.6%
CS(=O)(=O)c1cccc(C(=O)N(CCc2ccccc2)Cc2cccs2)c1 | inactive: 4.71%
CC(C)CNC(=O)C1CC(=O)OC12CCCCC2 (stereo unspecified) | inactive: -0.275%
Cc1cc(-c2n[nH]c(=S)n2/N=C/C=C/c2ccccc2)n[nH]1 | inactive: 18.1%
Cc1cc(C)c(NC(=O)CSc2nnc(CN3CCOCC3)n2C)c(C)c1 | inactive: -3.38%
COc1ccc(-c2c(C)n([O-])c3c([n+]2=O)CCCCC3)cc1 | inactive: 14.1%
CCn1cc(C(=O)NC(C)CCc2ccccc2)c(=O)c2cc(S(=O)(=O)N(C)C)ccc21 (stereo unspecified) | inactive: -15.5%
CN(C)C(=O)C(OC(=O)c1ccc2ccccc2n1)c1ccccc1 (stereo unspecified) | inactive: -4.36%
Cc1c(C(=O)NCc2ccc(Cl)cc2)oc2ccc3c(c12)C(=O)CC(C)(C)O3 | inactive: 16.4%
O=C(N/N=C/c1ccc2c(c1)OCO2)C(=O)Nc1cccc(Cl)c1 | inactive: 2.54%
O=C(c1ccccc1-c1ccccc1)N1CCCCC1 | inactive: 9.32%
Nc1cc(=O)[nH]n1C1CCCCC1 | inactive: -0.785%

SMILES | growth rescue (activation)
COc1cc(C(=O)N2CCCCC2c2cc(C(=O)Nc3ccccc3Cl)no2)cc(OC)c1C (stereo unspecified) | inactive: 7.88%
Cc1ccc(NCc2n[nH]c(=S)n2-c2ccccc2)cc1 | inactive: 3.07%
CCN(CC)S(=O)(=O)c1ccc(C)c(NC(=O)CN2C(=O)NC3(CCCC3)C2=O)c1 | inactive: 2.16%
Cc1nc(N2CCN(Cc3ccc(Cl)cc3)CC2)c2oc3ccccc3c2n1 | inactive: 3.67%
O=C(NC1CCCCC1)c1c2c(nc3ccccc13)CCC2 | inactive: 3.05%
CCOC(=O)c1cc(C#N)c(SCC(=O)OC)[nH]c1=O | inactive: -2.88%
COCC1CCCN(C(=O)c2ccc(OC3CCN(Cc4ccccn4)CC3)cc2)C1 (stereo unspecified) | inactive: -10.9%
O=C(Nc1ccc(Br)cc1F)c1ccc2c(c1)OCCO2 | inactive: 12.2%
CCc1nc(SCC(=O)Nc2ccccc2Cl)n[nH]1 | inactive: 12.1%
CCOC(=O)N1CCN(CC(O)COc2cc(C)cc(C)c2)CC1 (stereo unspecified) | inactive: -9.34%
O=C(Nc1ccc(Cl)cc1)C1CCCN1C(=O)NCc1ccccc1 (stereo unspecified) | inactive: -2.15%
CC(C)(C)c1ccc(-c2n[nH]c(=S)n2CCCN2CCOCC2)cc1 | inactive: 10.8%
O=C(CCNC(=O)c1ccco1)NCCc1c[nH]c2ccccc12 | inactive: 20.7%
Cc1ccc(N2C(=O)C3CCCN3C2=S)cc1 (stereo unspecified) | inactive: -1.46%
N#C/C(=C\c1ccc(OCc2ccccc2)cc1)C(=O)Nc1ccc(C(=O)O)cc1 | inactive: 19.7%
